Where two headings read alike, the source gives them in different places.
How the values were obtained:
[1] = cited from earlier work; for BMAX compartment 2 (maximum binding capacity, spleen) / BMAX compartment 3 (maximum binding capacity, kidney) / BMAX compartment 4 (maximum binding capacity, tumor) / BMAX compartment 5 (maximum binding capacity, SSTR-expressing organs): SSTR receptor expression; for k15 (uptake rate blood to other SSTR-expressing organs) / k16 (rate blood to rest compartment): assumed similar for both agents
From the text: All model parameters were fixed, since our single-time-point data were limited to estimate PK parameters, and most parameters were based on the previously developed PBPK model.

[2] = Observed tumor and kidney AUC from post-administration imaging (planar scintigraphy, SPECT/CT); assay type: in vivo, human; details: 0 to last measurement, four post-administration images, first cycle ~7.4 GBq
Protocol: Diagnostic PET/CT imaging was performed at ~45 min post-injection of ~100 MBq [^68Ga]Ga-HA-DOTATATE. […] Patient selection, data acquisition and data analysis were described previously. Individual accumulation data for spleen, kidneys and tumor lesions were available, whereas no blood samples were drawn. For tumors, only lesions with a diameter >2 cm and a maximum of five segmented lesions of which two per organ system per patient (i.e., target tumors) were included for model development. […] All tumor volumes were determined based on PET/CT imaging using IntelliSpace Portal (Philips Healthcare, The Netherlands) with a semi-automatic threshold segmentation method of 50% SUVmax. Decay corrected peptide concentrations (µg/L) were used for model development and evaluation, which were calculated based on the measured radioactivity per volume and the administered specific activities (MBq/µg) (using total administered peptide amounts).

[3] = Semi-physiological population PK model (six-compartment NLMEM, NONMEM) informed by patient imaging data; assay type: in vivo, human
Protocol: Using this approach, differences in population PK parameters between both radiopharmaceuticals were determined. First, a population PK model of [^68Ga]Ga-HA-DOTATATE was developed fully informed by a previously developed PBPK model. Subsequently, the model structure was applied to [^177Lu]Lu-HA-DOTATATE and parameters describing differences between both radiopharmaceuticals were estimated.
The first step of our approach was to develop a semi-physiological model for [^68Ga]Ga-HA-DOTATATE. Structural model development was informed based on a previously published PBPK model, where compartments were lumped based on their SSTR-expressing nature. […] Compartment five consisted of the lungs, pancreas, stomach, thyroid and liver. Structural model parameters were based on estimates from a previously published PBPK model. Organ volumes were fixed for all patients and derived from the ICRP Publication 89 adult human model. The tumor compartment volume was based on individual measured tumor volumes and consisted of the sum of volumes of all segmented tumors (based on).
The stochastic or statistical model accounted for inter-individual variability (IIV) and residual unexplained variability. For [^68Ga]Ga-HA-DOTATATE, IIV was added to uptake rate parameters. IIV was fixed based on assumed population variability, using information from ranges included in the previously developed PBPK model, assumed variability in uptake in organs and tumors based on clinical observations and estimated IIV in previously published population PK models for radiolabeled SSAs. IIV was modeled using an exponential distribution according to Eq. 2, while a proportional error model described the residual error according to Eq. 3.2 Pi=Ppop∗e^ηi 3 Cobs,ij=Cpred,ij∗(1+εp,ij) where Pi represents the individual PK parameter, Ppop represents the population PK parameter, and ηi represents the IIV effect for the ith individual with mean 0 and variance ω^2. Cobs represents the observed concentration and Cpred the predicted concentration for the ith individual and the jth measurement, and εp the proportional error with mean 0 and variance σ^2 for the ith individual and the jth measurement.
Factors known to affect PK parameters were added to the model a priori, since model development was based on fixed parameters rather than estimated based on data. Radiopharmaceutical distribution in NET patients might be impacted by a tumor sink effect, which reflects a reduced uptake in healthy tissues due to a high burden of disease. Therefore, the tumor sink effect was included in the model following Eq. 4, where the extent of this effect was based on previous PBPK simulations. In addition, a larger tumor volume is expected to increase tumor uptake, as was also shown for [^68Ga]Ga-PSMA-11 [34].
A bottom-up approach was used for [^68Ga]Ga-HA-DOTATATE model development and patient imaging data were only used for model evaluation. All model parameters were fixed, since our single-time-point data were limited to estimate PK parameters, and most parameters were based on the previously developed PBPK model.

[4] = Observed tumor and kidney absorbed dose (MIRD formalism); assay type: in vivo, human; details: first cycle ~7.4 GBq
Protocol: Absorbed doses for kidney and tumor were determined to evaluate the predicted energy deposited in the irradiated tissue. For this, time-integrated activity (TIA) (MBq*h) was determined using calculated AUCs (µg*h/L) in kidney and tumors, organ and tumor volumes (L) and injected specific activity (MBq/µg). The TIA was extrapolated to infinite time based on the calculated excretion rate per individual. After this, absorbed doses were calculated following the Medical Internal Radiation Dose (MIRD) formalism. Organ weights that were used for absorbed dose calculations were based on the ICRP Publication 89 adult male human model and corresponding S values were derived from IDAC-Dose 2.1 [27, 39]. For tumors, individual tumor volumes and a tissue density of 1.05 g/cm^3 were used to determine the corresponding S value.

[5] = patients receiving an amino acid solution during administration; cited from earlier work
[6] = population value from the estimated fold difference vs [^68Ga]Ga-HA-DOTATATE, nine NET patients
[7] = patient ID3, TIA extrapolated to infinite time
[8] = patient ID4, TIA extrapolated to infinite time
[9] = patient ID5, TIA extrapolated to infinite time
[10] = patient ID6, TIA extrapolated to infinite time
[11] = patient ID7, TIA extrapolated to infinite time
[12] = patient ID8, TIA extrapolated to infinite time
[13] = patient ID9, TIA extrapolated to infinite time
[14] = patient ID10, TIA extrapolated to infinite time

[^177Lu]Lu-HA-DOTATATE
BMAX compartment 2 (maximum binding capacity, spleen) ([1]; fixed): 16.7 nmol/L | BMAX compartment 3 (maximum binding capacity, kidney) ([1]; fixed): 6.7 nmol/L | BMAX compartment 4 (maximum binding capacity, tumor) ([1]; fixed): 30 nmol/L | BMAX compartment 5 (maximum binding capacity, SSTR-expressing organs) ([1]; fixed): 2.4 nmol/L | k10 (renal excretion rate constant) ([1]; fixed, based on a clearance value of 2.3 L/h, patients receiving amino acid solution): 0.575 h⁻¹ | k15 (uptake rate blood to other SSTR-expressing organs) ([1]; fixed): 2.5 h⁻¹ | k16 (rate blood to rest compartment) ([1]; fixed): 1 h⁻¹ | Fraction unbound in plasma ([1]; fixed): 0.57 | k20 (degradation rate constant, spleen) ([1]; fixed): 0.01 h⁻¹ | k30 (degradation rate constant, kidney) ([1]; fixed): 0.01 h⁻¹ | k50 (degradation rate constant, SSTR-expressing compartment) ([1]; fixed): 0.01 h⁻¹ | k60 (degradation rate constant, rest compartment) ([1]; fixed): 0.01 h⁻¹ | Tumor AUC0-tlast, observed ([2]; patient ID2): 3320 ng·h/mL | Kidney AUC0-tlast, observed ([2]; patient ID3): 520 ng·h/mL | Tumor AUC0-tlast, observed ([2]; patient ID3): 2090 ng·h/mL | Kidney AUC0-tlast, observed ([2]; patient ID4): 634 ng·h/mL | Tumor AUC0-tlast, observed ([2]; patient ID4): 5290 ng·h/mL | Kidney AUC0-tlast, observed ([2]; patient ID5): 334 ng·h/mL | Tumor AUC0-tlast, observed ([2]; patient ID5): 4690 ng·h/mL | Kidney AUC0-tlast, observed ([2]; patient ID6): 902 ng·h/mL | Tumor AUC0-tlast, observed ([2]; patient ID6): 1380 ng·h/mL | Kidney AUC0-tlast, observed ([2]; patient ID7): 564 ng·h/mL | Tumor AUC0-tlast, observed ([2]; patient ID7): 2800 ng·h/mL | Kidney AUC0-tlast, observed ([2]; patient ID8): 443 ng·h/mL | Tumor AUC0-tlast, observed ([2]; patient ID8): 2940 ng·h/mL | Kidney AUC0-tlast, observed ([2]; patient ID9): 764 ng·h/mL | Tumor AUC0-tlast, observed ([2]; patient ID9): 1760 ng·h/mL | Kidney AUC0-tlast, observed ([2]; patient ID10): 621 ng·h/mL | Tumor AUC0-tlast, observed ([2]; patient ID10): 2590 ng·h/mL | k13 (uptake rate blood to kidney) ([3]; population value from the estimated fold difference vs [^68Ga]Ga-HA-DOTATATE, first kidney time point excluded, amino acid co-infusion): 0.107 h⁻¹ | k14 (uptake rate blood to tumor) [3, 6]: 0.157 h⁻¹ | k40 (degradation rate constant, tumor) [3, 6]: 0.00375 h⁻¹ | k12 (uptake rate blood to spleen) ([3]; population value from the estimated fold difference vs [^68Ga]Ga-HA-DOTATATE, nine NET patients, four imaging time points): 0.0607 h⁻¹ | Structural effect of tumor volume on k14 ([3]; power exponent eff of Eq. 5, estimated from nine NET patients, RSE% in brackets): 0.67 (17%) | Tumor absorbed dose, observed ([4]; patient ID2, TIA extrapolated to infinite time): 24.4 Gy | Kidney absorbed dose, observed [4, 7]: 3.12 Gy | Tumor absorbed dose, observed [4, 7]: 14.4 Gy | Kidney absorbed dose, observed [4, 8]: 2.21 Gy | Tumor absorbed dose, observed [4, 8]: 29.3 Gy | Kidney absorbed dose, observed [4, 9]: 1.19 Gy | Tumor absorbed dose, observed [4, 9]: 38.3 Gy | Kidney absorbed dose, observed [4, 10]: 5.38 Gy | Tumor absorbed dose, observed [4, 10]: 8.67 Gy | Kidney absorbed dose, observed [4, 11]: 3.92 Gy | Tumor absorbed dose, observed [4, 11]: 34.4 Gy | Kidney absorbed dose, observed [4, 12]: 3.79 Gy | Tumor absorbed dose, observed [4, 12]: 19.5 Gy | Kidney absorbed dose, observed [4, 13]: 4.41 Gy | Tumor absorbed dose, observed [4, 13]: 12.4 Gy | Kidney absorbed dose, observed [4, 14]: 3.71 Gy | Tumor absorbed dose, observed [4, 14]: 27.7 Gy

[^177Lu]Lu-DOTATATE
clearance [5]: 2.3 L/h

[^68Ga]Ga-HA-DOTATATE
BMAX compartment 2 (maximum binding capacity, spleen) ([1]; fixed): 16.7 nmol/L | BMAX compartment 3 (maximum binding capacity, kidney) ([1]; fixed): 6.7 nmol/L | BMAX compartment 4 (maximum binding capacity, tumor) ([1]; fixed): 30 nmol/L | BMAX compartment 5 (maximum binding capacity, SSTR-expressing organs) ([1]; fixed): 2.4 nmol/L | k10 (renal excretion rate constant) ([1]; fixed parameter, NET patients, no kidney protection): 0.25 h⁻¹ | k12 (uptake rate blood to spleen) ([1]; fixed population parameter): 0.21 h⁻¹ | k13 (uptake rate blood to kidney) ([1]; fixed population parameter): 0.22 h⁻¹ | k14 (uptake rate blood to tumor) ([1]; fixed population parameter): 0.11 h⁻¹ | k15 (uptake rate blood to other SSTR-expressing organs) ([1]; fixed): 2.5 h⁻¹ | k16 (rate blood to rest compartment) ([1]; fixed): 1 h⁻¹ | Fraction unbound in plasma ([1]; fixed): 0.69 | k20 (degradation rate constant, spleen) ([1]; fixed): 0.01 h⁻¹ | k30 (degradation rate constant, kidney) ([1]; fixed): 0.01 h⁻¹ | k40 (degradation rate constant, tumor) ([1]; fixed): 0.01 h⁻¹ | k50 (degradation rate constant, SSTR-expressing compartment) ([1]; fixed): 0.01 h⁻¹ | k60 (degradation rate constant, rest compartment) ([1]; fixed): 0.01 h⁻¹ | Structural effect of tumor volume on k14 ([1]; power exponent eff of Eq. 5, fixed): 1
